# Test results taken from the supplement of paper PMC10338343.
# ± gives the standard deviation. Whole data set: some 5,500 sequences, median “pre-steady-state target cleavage rate” near 0.1, cut for the highest 2% near 0.64. Only a part is listed here, and it is no random draw.
# System: MIWI (PIWIL1) piRISC loaded with piRNA #2 (30 nt)
# Assay: pre-steady-state target cleavage rate (min^-1); MIWI and MILI are mouse PIWI proteins and EfPiwi is from a freshwater sponge; tags in brackets are library labels; higher = faster piRNA-guided slicing of the target
# Settings: guide: piRNA #2 5'p-UUAGGUAACCCAGUAGAUCCAGAGGAAUUC; auxiliary factor: 500 nM mouse GTSF1
# Procedure: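 Cleave-'n-Seq: a library of target RNAs (target site embedded in constant flanks, ACAGCATTCCGCGTTAGTGATATCCG... 5' flank; DNA-blocked outside the site) at 0.1 nM was incubated with 1 nM active mouse MILI or MIWI piRISC (synthetic 5'-monophosphorylated piRNA guide) with or without 500 nM mouse GTSF1 at 33 °C for 1 min to 16 h. Uncleaved targets were sequenced and normalised to non-target controls, and the pooled three trials were fitted to a burst-and-steady-state model to give the pre-steady-state cleavage rate (min^-1; k3 is constrained to at most 1e-4). Sequence is the target site only; target names encode pairing extent (gX:gY) and contiguous / 1-mismatch / 2-mismatch / bulge geometry. Fits with R² ≤ 0 are excluded.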
row,Sequence,pre-steady-state target cleavage rate
1,CUAUUCCUCGGGAUCUACUGGGUUACCUAA,0.31 ± 0.076
2,CUUAAGGAGAGGAUCUACUGGGUUCACCUAA,0.00996 ± 0.004
3,CUUUUCCUCUGGAUCUACUGGGUAACCAAA,0.13 ± 0.034
4,CUUAACCUCUGGAUCUACUGGUUUACCUAA,0.153 ± 0.012
5,CUUUUCCUCUGGAUCUAAUGGGUUACCUAA,0.199 ± 0.025
6,CUUAUCCUCUGCAUCUACUGGGUAACCUAA,0.15 ± 0.017
7,CUUAAGCUCUGGAUGUACUGGGUUACCAAA,0.168 ± 0.02
8,CUUAUCCUCUGGAUGUACUGGGUUAGCUAA,0.216 ± 0.025
9,CUUUUCCUCAGGAUCUACUGGGUUACCUUA,0.515 ± 0.066
10,CAAAUCCUCUGCAUCUACUGGGUUACCUAA,0.473 ± 0.036
11,GAAUACCUCUGGAUCUACUGGGAUACCUAA,0.167 ± 0.019
12,CUAUUCCUCUGCAUCUACUGGGAUACCUAA,0.168 ± 0.023
13,CUAUAGCUCUGGAUCUACUGGGUUACCUAA,0.0962 ± 0.022
14,CUAUUCCGUCUGGAUCUACUGGGUUACCUAA,0.468 ± 0.049
15,GAAUUCCUCUGCGAUCUACUGGGUUACCUAA,0.552 ± 0.057
16,CAAUUCCUCUGGAUGUACUCGGUUACCUAA,0.103 ± 0.028
17,CUUUUGCACUGGAUCUACUGGGUUACCUAA,0.429 ± 0.048
18,CAAUUCCUGUGGAUCUACUGGGUUACCAAA,0.233 ± 0.056
19,CUUAAGGAGAGGAUCUACUGGGUUAGCCUAA,0.00467 ± 0.0037
20,CUUUUCCUCUGAAUCUACUGGGUUACCUAA,0.224 ± 0.036
21,CUUAUCCUCUGGAACUACUGGGUUACCUUA,0.254 ± 0.03
22,CUUAAGGUCAGGAUCUACUGGGUUACCUUA,0.0185 ± 0.0063
23,CCAUUCCUCUGGAUCUACUGGGUUACCUAA,0.512 ± 0.05
24,CAAUACCUCUGGAUGUACUGGGUUACCUAA,0.612 ± 0.043

row,Sequence,pre-steady-state target cleavage rate
1,CUUAUCCUCUGGAUCUACUGGGUAUGCUAA,0.0153 ± 0.005
2,CUAUUCGUCAGGAUCUACUGGGUUACCUAA,0.429 ± 0.062
3,CUUUUCCUCUGGAUCUACUGCGUUUCCUAA,0.119 ± 0.024
4,CUUAAGGAGUGGUAUCUACUGGGUUACCUAA,0.0169 ± 0.0045
5,CUAUUCCCUGGAUCUACUGGGUUACCUAA,0.538 ± 0.044
6,CUUAAGCUCUGGUUCUACUGCGUUACCUAA,0.372 ± 0.046
7,CUUAAGGUCUGGAUCUACUGGGUUAGCUUA,0.0462 ± 0.015
8,CUUAAGGACAGGAUCUACAGGGUUACCUAA,0.0125 ± 0.0063
9,CAAUUCCUCUGGAUCUAGUGGGAUACCUAA,0.107 ± 0.022
10,CUUAAGGAGUGGAUUCUACUGGGUUACCUAA,0.0115 ± 0.0028
11,CAAUUCCUCUGGAACUACUGGGUUACCUUA,0.387 ± 0.059
12,CUUUUCCUCUGGAUCUAGUGGGAUACCUAA,0.0842 ± 0.013
13,GAAUUCCUCUGGUUCUACAGGGUUACCUAA,0.472 ± 0.043
14,GAAUUCCUCUGGAUCAACUGGGUUACCAAA,0.294 ± 0.039
15,CUUAAGGUCUCGAUCUACUGGGUUUCCUAA,0.0622 ± 0.013
16,CUUAAGCUCUGGUUCUACUGGGUUACCUAA,0.267 ± 0.026
17,CUUUUCCUCUGGAUCUACACGGUUACCUAA,0.199 ± 0.022
18,CUUAAGCUCUGGAUGAACUGGGUUACCUAA,0.0941 ± 0.021
19,CUUAAGGAGUGGUUCUACUGGCUUACCUAA,0.00805 ± 0.0069
20,CUAUUCCUCUGGAACUACUCGGUUACCUAA,0.117 ± 0.019
21,CAAUUCCUCUGGAUCUACUGGGUUACCAA,0.501 ± 0.08
22,CUUAACCUCAGGAUCAACUGGGUUACCUAA,0.303 ± 0.033
23,GAAUUUCCUCUGGAUCUACUGGGUUACCUAA,0.194 ± 0.049
24,CUUAAGGAGAUGAUCUACUGGGUUACCUAA,0.0054 ± 0.0031

row,Sequence,pre-steady-state target cleavage rate
1,CUAUUCCUCUGGAUCUACGGGGUUACCUAA,0.0778 ± 0.0061
2,CUUAAGGUCUGGAUCUAGUGGGUUACCUAA,0.106 ± 0.011
3,CUAUUCGUCUGGUUCUACUGGGUUACCUAA,0.513 ± 0.042
4,CUUAAGGAGAGGAUCUACUGGGUUACGUAA,0.0626 ± 0.018
5,CUUAAGGACUGGAUGUACUGGCUUACCUAA,0.0448 ± 0.029
6,CUUAUCCUCUGGAUCUACAGGGUAACCUAA,0.128 ± 0.023
7,CUUUUCCUCUGGGUCUACUGGGUUACCUAA,0.365 ± 0.028
8,GAUUUCCUCUGGAUGUACUGGGUUACCUAA,0.227 ± 0.053
9,GAAUUCCUGUGGAUCUAGUGGGUUACCUAA,0.287 ± 0.022
10,CUUAAGGUCUGGAACUACUGGGUUACCUUA,0.0754 ± 0.017
11,CUUAAGGACUGGAUCUACGGGGUUACCUAA,0.0351 ± 0.015
12,CUUAAGGUCUGUGAUCUACUGGGUUACCUAA,0.151 ± 0.046
13,GAAUUCCUCAGGAUCUACUGGGUUACCUAA,0.483 ± 0.048
14,CAAUUCCUCAGGAACUACUGGGUUACCUAA,0.365 ± 0.042
15,CUUAACCUCUGGAUCUACUCGGUUAGCUAA,0.0154 ± 0.0085
16,CUUAACCUUGGAUCUACUGGGUUACCUAA,0.351 ± 0.022
17,CUUAAGGACUGGAUGUACUGGGUUUCCUAA,0.0279 ± 0.023
18,CUUUUCCUCUGGAUGAUCUGGGUUACCUAA,0.0123 ± 0.0037
19,CUUAAGGUCUGGAUCUACUCGGUUUCCUAA,0.00651 ± 0.0052
20,CUUAAGGAGUGGAUCUACCGGGUUACCUAA,0.00592 ± 0.0031
21,CUUAUCCUCUGGAUCUACUGGGUCACCUAA,0.322 ± 0.064
22,GAAUUCCUCUGUGAUCUACUGGGUUACCUAA,0.334 ± 0.038
23,CUAUUCGUCUGGAACUACUGGGUUACCUAA,0.447 ± 0.039
24,CAAUUCCUCUGGAUCUACUGGGUUACGCUAA,0.538 ± 0.063
